In publication PMC9161972 (Journal of Medical Virology, 2022):

Experiments:
[1] = tested on: HIV/MARV pseudovirus (Marburg virus Musoke glycoprotein); assay: organism not typed; assay type: cell-based; details: A549, 48 h, read-out: IC50 HIV/MARV
[2] = tested on: HIV/EBOV pseudovirus (Ebola virus Zaire Mayinga glycoprotein); assay: organism not typed; assay type: cell-based; details: A549, 48 h, read-out: IC50 HIV/EBOV
[3] = tested on: HIV/MLAV pseudovirus (Měnglà virus glycoprotein); assay: organism not typed; assay type: cell-based; details: for IC50: A549, 48 h, read-out: IC50 HIV/MLAV
[4] = in vitro; details: human

Compound	IC50 [1] [µM]	IC50 [2] [µM]	selectivity index (SI) with MLAV [3]	IC50 [3] [µM]	CC50 [4] [µM]
CN1[C@@H]2CC[C@H]1C[C@@H](OC(c1ccccc1)c1ccccc1)C2 [Benztropine]	2.54 ± 0.57	0.4 ± 0.52	greater than 10	4.93 ± 0.24	
CNCCC(Oc1ccc(C(F)(F)F)cc1)c1ccccc1 (centres unmarked) [Fluoxetine]	2.44 ± 0.58	3 ± 0.54		7.84 ± 0.54	
Cc1ccccc1C(OCCN(C)C)c1ccccc1 (centres unmarked) [Orphenadrine]	10.1 ± 3.58	1.45 ± 0.56		23 ± 4.71	> 100
